Measurements taken from the supplement of paper PMC3334620.
The full ranking holds about 33,000 sequences; the median of “E-score (-0.5 to 0.5)” is about -0.016, and the highest 2% start at about 0.31. This is one part of the list.

The sequences below were run against Cst6 (UniProt P40535) (assay: PBM E-score (8-mer binding enrichment) (E-score (-0.5 to 0.5)); higher = stronger / more preferred TF binding; most listed sequences are background and not binding sites). Settings: protein concentration: 200 nM; construct: GST-DNA-binding domain.
How it was run: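 Using PURExpress in vitro transcription/translation, GST-tagged yeast transcription factors were made in full-length or DNA-binding-domain form. These were applied at about 100-200 nM to double-stranded universal all-10-mer Agilent arrays, and bound protein was detected with fluorescent anti-GST. Scans were normalised with masliner before the Universal PBM Analysis Suite assigned E-scores to ungapped eight-base words pooled with their reverse complements.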

Row | Sequence | PBM E-score
1 | ATCAGCGA | 0.0226
2 | CTTATGGA | -0.131
3 | GGTCATAC | 0.151
4 | GCCCCTCA | -0.255
5 | AACGTGAA | 0.0952
6 | CTCTGACC | -0.23
7 | CTTCTGTC | 0.121
8 | ACATGTAC | -0.0906
9 | CGCATTTC | 0.0285
10 | CGGGAAAG | 0.00149
11 | ACGGTCAT | 0.266
12 | ATAACGCA | 0.0368
13 | GTAGGTAA | 0.00543
14 | TAACCACA | 0.0592
15 | CCGGAAAG | -0.23
16 | TGTAAACA | 0.23
17 | CATCGCTA | 0.0705
18 | GGCTAACC | -0.339
19 | GCTCGTCA | 0.238
20 | AAACTAAA | 0.271
21 | ACAGCTAC | -0.145
22 | CTAATGTA | 0.0407
23 | GAAGAAAC | 0.0417
24 | ATAGACCC | 0.0462
25 | CAGTCGAC | 0.0605

Row | Sequence | PBM E-score
26 | AGTCTGTA | -0.118
27 | GGCTCCAA | -0.122
28 | AGAGTGGC | -0.145
29 | GATGAAGA | -0.0603
30 | GAGCCCGC | -0.165
31 | ATCGCATC | -0.00109
32 | CCAAATCA | 0.0402
33 | GGACGTAA | 0.279
34 | GGGAACTA | -0.0863
35 | CACGGAGC | 0.0494
36 | ACCCCCGA | -0.175
37 | GCATACCA | -0.0814
38 | ACCCATGA | 0.0173
39 | ACGGATGC | 0.0837
40 | TGGATCAA | 0.125
41 | GTAAGGAC | -0.0194
42 | GTAACGGA | 0.137
43 | AAGAGCTT | -0.156
44 | GTTTAAAC | 0.245
45 | ACAGGACG | -0.1
46 | AACTGGAG | -0.198
47 | AGGTCTGC | -0.212
48 | ATAGAAAC | 0.228
49 | AACGTATC | 0.036
50 | CCGGTACC | -0.178

Row | Sequence | PBM E-score
51 | CCAGCAGG | -0.192
52 | GTGCGGTA | 0.146
53 | CTTACTCA | 0.00832
54 | AGCTCAAT | -0.0231
55 | AGTAGAGC | -0.269
56 | TGTCCGAA | 0.0935
57 | AGGTTGAG | -0.192
58 | ATAATGAC | 0.295
59 | CTGCGCCA | 0.0169
60 | AACTTCGC | 0.0226
61 | ACAGGAGC | 0.00619
62 | AACCTCTA | -0.14
63 | CTGTTTTC | 0.105
64 | CGTGTAAG | 0.175
65 | TATGACCA | 0.202
66 | GATTCCAA | 0.0676
67 | GCGTGCCA | -0.0975
68 | ATACTATC | 0.0849
69 | CCCAGGAC | -0.267
70 | GAAGTGTA | -0.0897
71 | CCTCCGTC | -0.158
72 | AATACTAC | 0.266
73 | AGTAGACG | 0.169
74 | ACGCTATC | 0.093
75 | CTAGATCC | -0.259

Row | Sequence | PBM E-score
76 | CCTAAACC | -0.199
77 | GCCTGTGA | -0.0478
78 | GTCGTCAC | 0.425
79 | ACGGTGAA | 0.0928
80 | ATTATTAG | 0.115
81 | GGTCTCAA | 0.0339
82 | AGCATGCT | -0.223
83 | CGACACAG | 0.0676
84 | CCCAACAA | 0.108
85 | GTTGTTCA | 0.0498
86 | TAGTACTA | 0.0109
87 | ACCGCCGG | -0.221
88 | GAATTAAA | 0.0775
89 | CTACGTTA | 0.224
90 | ATTAGGTC | 0.234
91 | AGCACTTA | 0.0268
92 | CACCCAGG | -0.169
93 | CCACGGAG | -0.0306
94 | AAGCTAAG | -0.252
95 | TCCAAGAA | -0.0124
96 | TTCTCAAA | 0.266
97 | CCAGTTTC | -0.203
98 | AACTACCA | -0.00731
99 | GGTCGTCA | 0.272
100 | CACCACGG | -0.301

Row | Sequence | PBM E-score
101 | GCTCTGCA | -0.25
102 | AAGCTTAA | 0.00673
103 | CTAAACCC | -0.0875
104 | ATTTTGGG | 0.0505
105 | CAAACTTA | 0.2
106 | CACATACA | -0.0631
107 | ATAGAGGG | -0.0244
108 | ACTTCTCC | -0.236
109 | ATACCTAT | -0.00445
110 | CGTCTCAC | -0.0564
111 | AATGCAAG | 0.0391
112 | CAATCCGC | -0.0548
113 | CGAGAGAC | -0.238
114 | GCGAGTGA | 0.135
115 | AACATCAA | 0.236
116 | TGGTAAAA | 0.219
117 | ACTAAGAT | 0.139
118 | CGTAGGTC | -0.174
119 | ATTGGGCG | -0.066
120 | AATCACGC | 0.0689
121 | CTATTTAC | 0.147
122 | ATATATTG | 0.109
123 | GAGCTGAA | -0.178
124 | TATTGCGA | 0.207
125 | CTGGTATA | -0.221

Row | Sequence | PBM E-score
126 | TCCCGCCA | -0.313
127 | GGCTTATA | 0.0535
128 | ACCGAGTA | -0.136
129 | AAGCTACA | -0.0187
130 | ATGCTTAA | 0.0356
131 | CATCACGC | 0.207
132 | AAGATTAA | 0.177
133 | GAAACCTA | -0.148
134 | GACCCTTA | -0.1
135 | CATTCCTC | -0.155
136 | TCATGTAA | 0.273
137 | AGCGGCCC | -0.405
138 | AAATGCGT | 0.143
139 | GAGTCTGA | -0.186
140 | ATTTGTAC | 0.151
141 | CATAGACA | 0.147
142 | CAAGCCTG | -0.0975
143 | ATGTTGCC | -0.0139
144 | GCGTTCAC | -0.104
145 | ACTACAGT | 0.15
146 | TGTTACAA | 0.107
147 | GTACTCGA | -0.111
148 | GAGATCTA | -0.132
149 | CATATGAA | 0.165
150 | AGCTAATC | 0.201

Row | Sequence | PBM E-score
151 | TAGCCAGA | 0.0135
152 | GTCCACGA | -0.141
153 | GGAGCTAC | -0.153
154 | ACGCTCGC | -0.0376
155 | AGAGTCTG | -0.36
156 | AATTGTAA | 0.0936
157 | ACAGGGAA | -0.118
158 | AGCCCAGC | -0.269
159 | ACCATAAA | 0.142
160 | CCCAATAC | -0.0128
161 | ATTTACCC | 0.0182
162 | GGAGTGTA | -0.197
163 | GAGTGTCA | 0.223
164 | AGAGTGCA | -0.157
165 | TAGACGAA | 0.026
166 | AAGAACCC | -0.0514
167 | AGGAACGG | -0.0673
168 | CTTAAAGA | -0.00756
169 | CATAACAG | 0.169
170 | GCCCACCA | -0.262
171 | CCCAAGCG | -0.308
172 | AACTTGTA | 0.174
173 | ATTAACAC | 0.26
174 | CTTTGGTA | -0.148
175 | GAATTTGA | 0.0272

Row | Sequence | PBM E-score
176 | TAAGACTA | -0.0424
177 | GAGAATCC | -0.127
178 | CTTAATAC | 0.117
179 | ACCTCTCC | -0.198
180 | AAAGATCG | 0.0436
181 | CGTCTCAG | -0.0355
182 | GAAGGGAA | -0.123
183 | AACTCGAG | -0.0652
184 | CGAGCGTA | -0.0819
185 | CATAGCTC | 0.00697
186 | ACAGTGGA | 0.0174
187 | CAGGGTCC | -0.322
188 | CAGATTAC | 0.145
189 | ACGATGTA | 0.104
190 | CGATGATA | 0.109
191 | CTGTGTTC | -0.0438
192 | AACGCATA | 0.133
193 | CAATACCC | -0.132
194 | TCCGAAGA | -0.0693
195 | CGATGGCA | -0.112
196 | CGCAATAG | 0.157
197 | ACCGACGG | -0.0433
198 | AACAGTGA | 0.174
199 | GTACAGTA | 0.0186
200 | AGTCACAG | -0.0682

Row | Sequence | PBM E-score
201 | CCCCCGCA | -0.311
202 | CAGAAAGG | -0.0364
203 | TTACGCAA | 0.438
204 | GCGTCCAA | -0.223
205 | GTGATAAA | 0.201
206 | TGGCGAAA | -0.0838
207 | TAGCACAA | -0.0337
208 | CTTCAATA | 0.16
209 | CAGGGAAG | -0.244
210 | CGGAGAAC | -0.231
211 | TACGCTCA | 0.183
212 | AGCCAACC | -0.085
213 | AAGACGAC | -3e-05
214 | TGAGATCA | 0.344
215 | CTTCTTCC | -0.212
216 | ACCGGGGA | -0.242
217 | ACACTGCA | -0.154
218 | ACGTTTGG | 0.0774
219 | AAGGCATC | 0.00179
